# How the values were obtained:
# [1] = molecular target: T1, human PD-L1 recombinant protein (human, UniProt Q9NZQ7 part only); assay: BLI, human PD-L1 recombinant protein
# T1 construct: also called recombinant PD-L1 protein; recombinant PD-L1
# PD-L1-mFc = molecular target: T2, PD-L1-mFc (human, UniProt Q9NZQ7 part only); assay: competition ELISA: PD-1-hFc coated, hzF2 dilutions with 0.5 µg/mL PD-L1-mFc, anti-mouse Fc detection
# T2 construct: range 19-238; not shown: mouse Fc (mFc)
# Description: Human PD-1-hFc (PD-1 Sequence No. NP_005009.2, 21aa-167aa) was diluted with PBS to 0.5 µg/mL, coated on an ELISA plate overnight at 4° C. Then the plate was blocked with 5% BSA for 60 min at 37° C. in a thermostatic incubator. Gradient dilutions of hzF2 and control antibody KN035, and an isotype control NC-hIgG1 (initial working concentration of 50 nM, 1.5-fold dilution to 10 concentration gradients), were added, then PD-L1-mFc (PD-L1 Sequence No. NP_054862.1, 19aa-238aa) was added at a working concentration of 0.5 µg/mL, co-incubated and reacted in a thermostatic incubator at 37° C. for 60 min. The plate was washed 4 times with PBST; then added 1:5000 diluted HRP-anti-mouse Fc (Cat.:115-035-071, Jackson Immuno Research) thereto, reacted for 45 min, and added TMB (Beijing Taitianhe Biology, Cat.: ME142) substrate to develop color for 15 min. After adding 2 M HCl to stop the reaction, the plate was read and recorded about the absorbance value of A450nm-630nm of the well plate by a reader taking 630 nm as the reference wavelength, and 450 nm as the detection wavelength.
# [2] = molecular target: T3, human PD-L1 expressed on the cell surface (human, UniProt Q9NZQ7); assay: cell-based or functional assay
# [3] = molecular target: T1, human PD-L1 recombinant protein; assay: BLI (Octet QKe), antibody captured on AHC probe, PD-L1 60 nM
# T1 sequence (Q9NZQ7 19-238 limits assumed): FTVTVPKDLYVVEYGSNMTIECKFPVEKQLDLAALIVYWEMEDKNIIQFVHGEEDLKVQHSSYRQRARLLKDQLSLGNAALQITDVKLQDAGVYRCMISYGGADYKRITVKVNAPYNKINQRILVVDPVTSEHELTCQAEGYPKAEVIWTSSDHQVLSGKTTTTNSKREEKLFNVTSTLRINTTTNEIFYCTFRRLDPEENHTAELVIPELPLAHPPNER
# Description: Using the Octet QKe system instrument from Fortebio Company, the ability of chF2 to bind corresponding recombinant antigen was determined by using the capture antibody (AHC) biological probe against the Fc fragment of the human antibody to capture the Fc fragment of the antibody. During the measurement, chF2 was diluted with PBS buffer to 4 µg/mL, and flowed over the surface of AHC probe (Cat.: 18-0015, PALL) for 120 s. A human PD-L1 recombinant protein was used as the mobile phase to interact with the antibody captured on the chip surface. The recombinant PD-L1 protein concentration was 60 nM. The binding time for each antigen was 300 s, and the final dissociation time was 300 s.
# [4] = molecular target: T4, murine PD-L1 recombinant protein (murine, UniProt Q9EP73 part only, limits assumed); assay: BLI (Octet QKe), antibody captured on AHC probe, antigen as mobile phase
# T4 construct: also called recombinant murine PD-L1
# T4 sequence (Q9EP73 19-238 limits assumed): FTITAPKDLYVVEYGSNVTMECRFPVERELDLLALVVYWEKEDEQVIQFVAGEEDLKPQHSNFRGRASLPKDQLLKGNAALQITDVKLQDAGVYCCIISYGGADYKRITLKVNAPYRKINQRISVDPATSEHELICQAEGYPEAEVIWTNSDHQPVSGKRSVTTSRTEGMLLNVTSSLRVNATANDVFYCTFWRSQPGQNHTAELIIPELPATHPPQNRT
# Description: (§1) The Octet QKe system instrument from Fortebio Company was used to determine whether chF2 could bind to recombinant monkey PD-L1 and recombinant murine PD-L1 by using the capture antibody (AHC) biological probe of anti-human antibody Fc segment to capture the Fc segment of the antibody. During the measurement, chF2 was diluted to 4 µg/mL with PBS buffer and flowed over the surface of AHC probe (PALL, Cat.: 18-0015) for 120 s. The monkey PD-L1 recombinant protein and the murine PD-L1 recombinant protein were used as mobile phases to interact with the antibodies captured on the surface of the chip. The PD-L1 recombinant protein concentration was 60 nM. The binding time of each antigen was 300 s, and the final dissociation time was 300 s.
# [5] = molecular target: T5, monkey PD-L1 recombinant protein (monkey); assay: BLI (Octet QKe), antibody captured on AHC probe, antigen 60 nM
# T5 construct: also called recombinant monkey PD-L1
# Description: as §1
# [6] = molecular target: T3, human PD-L1 expressed on the cell …; assay: flow cytometry on CHO-PD-L1-CD3L cells, FITC anti-human Fc
# Description: Cells (CHO-PD-L1-CD3L cells) were collected after centrifugation, divided into 5×10⁵ cells/sample/100 µL. Gradient diluted single variable domain antibody was added to the cells at a final concentration of 66 nM as the highest concentration, 3-fold serial dilution to make 10 gradients; then incubated on ice for 2h. The cells were washed twice with ice-cold PBS (containing 0.05% Tween). FITC-labeled anti-human Fc secondary antibody (Cat.: F9512, Sigma) was added, and incubated on ice for 1h. The cells were washed twice with ice-cold PBS (containing 0.05% Tween), resuspended in 200 µL of Flow Cytometry Buffer, and the mean fluorescence intensity (MFI) of the cells was detected by flow cytometer (Model B49007AD, SNAW31211, BECKMAN COULTER).
# PD-L1-mFc, sequence (Q9NZQ7 19-238 limits assumed): as the sequence (Q9NZQ7 19-238 limits assumed) above
binder,measurement,setting,value
"VHH-F2-human-Fc humanized antibody (Fc fusion, Full-length chain; also called hzF2; HzF2) EVQLVESGGGLVQPGGSLRLSCAASRDSDDGASCMGWFRQAPGKGLEGVAIIFNAGERTDYGDSVKGRFTISRDNAKNTLYLQMNSLRAEDTAVYYCATVWCGSWVARSWGQGTLVTVSSAS[gap - human IgG1 Fc with changes]",Kd,[1],1.4 nM
same,koff,[1],0.000305 s⁻¹
same,kon,[1],218000 M⁻¹ s⁻¹
same,IC50,PD-L1-mFc,4.3 nM
same,"Reporter Gene Assay (Jurkat-PD1-NFAT cells and CHO-PD-L1-CD3L cells), luciferase RLU, EC50",[2],5.45 nM
"VHH-F2-human-Fc chimeric antibody (Fc fusion, Full-length chain: camel VHH-F2 variable region fused to human IgG1 Fc, expressed in 293F cells; also called chF2; human-camel chimeric single variable domain antibody) QVQLQESGGGSVQTGGSLRLACAVSRDSDDGASCMGWFRQAPGKGREGVAIIFNAGERTDYGDSVKGRFTISQDNAKNTLFLQMNSLKPEDSAMYYCATVWCGSWVARSFGQGTQVTVSSAS[gap - human IgG1 Fc with changes]",Kd,[3],1.11 nM
same,koff,[3],0.000248 s⁻¹
same,kon,[3],224000 M⁻¹ s⁻¹
same,binding result,[4],no binding (tested: 60 nM)
same,Kd,[5],1.4 nM
same,koff,[5],0.000305 s⁻¹
same,kon,[5],218000 M⁻¹ s⁻¹
same,EC50,[6],1.04 nM

# — patent publication US20230279115A1 (MABWELL SHANGHAI BIOSCIENCE, published 2023)
